Assay results: PubChem BioAssay AID1347073 (National Center for Advancing Translational Sciences (NCATS), 2019)
Among all 45,000 compounds or so, about 200 (0.44%) were called active. Another 7% or so got no clear call; they are omitted. The call rests on the fitted dose curve; in most records, active means well fitted activation curve with a large enough effect; inconclusive means small, poorly fitted or top-dose-only effect; inactive means no such curve, though single readings can be large or run the other way. Some of the results follow.

assay: qHTS of TDP-43 Inhibitors: NCGC Sytravon Library Screen; details: yeast TDP-43 toxicity rescue, BacTiter-Glo growth, 24 h; series mostly up to 46.1 µM; growth rescue (activation): at the top concentration; further: 0% is about no effect; nearly all actives have a fitted effect of over 55% in size
Outline: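 TDP-43-expressing yeast, pregrown in raffinose, seeded at OD600 0.02 in galactose medium with compound for 24 hr at 30 deg C. Growth read by BacTiter-Glo luminescence, so rescue of toxicity appears as activation.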

SMILES | growth rescue (activation)
NC(=O)c1ccccc1NC(=O)Cc1cccs1 | inactive: 5.72%
CCCNC(=O)C1(C)CCCN(C(=O)c2oc3ccccc3c2C)C1 (stereo unspecified) | inactive: -9.34%
CCCN(CCC)CC(O)Cn1c2ccccc2c2ccccc21 (stereo unspecified) | inactive: 4.45%
COCCCN(C(=S)NC(=O)c1ccc(C(C)(C)C)cc1)c1c(N)n(Cc2ccccc2)c(=O)[nH]c1=O | inactive: 17.1%
Cc1cccc(OCCC(=O)Nc2ccccc2C(N)=O)c1 | inactive: 2.51%
CCOc1ccc(N2C(=O)CC(NCCc3ccc(S(N)(=O)=O)cc3)C2=O)cc1 (stereo unspecified) | inactive: 11.4%
Cc1cc(C(=O)CSc2nnc(-c3ccc(F)cc3)o2)c(C)n1CC1CCCO1 (stereo unspecified) | inactive: 15.1%
O=C(CC1CCCC1)N1CCCC(Nc2cccc(F)c2)C1 (stereo unspecified) | inactive: 13%
Cc1cccc(CSc2nnc(CCCCCNC(=O)OC(C)(C)C)o2)c1 | inactive: 21.8%
Cn1c(CN2CCCC2)nc2cc(NC(=O)COc3ccc([N+](=O)[O-])cc3)ccc21 | inactive: 16.9%
COc1ccccc1NC(=O)N1CCN(C)CC1 | inactive: 1.75%
O=C(COc1ccc(Br)cc1)N/N=C1/SCC(=O)N1Cc1ccccc1 | inactive: 18.8%
CN(C)C(CNC(=O)CNC(=O)Cc1cccc2ccccc12)c1ccccc1 (stereo unspecified) | inactive: 5.13%
CCCNC1=C(C)C(=O)CC1 | inactive: 12.8%
CN(C(=O)CSc1nc(-c2cccs2)nc2ccccc12)C1CCS(=O)(=O)C1 (stereo unspecified) | inactive: 15.9%
CCOC(=O)c1c(C)[nH]c(C)c1C(=O)COC(=O)[C@@H](NC(=O)c1ccco1)C(C)C | inactive: 8.95%
O=C(CN(C(=O)CCC(=O)Nc1nccs1)c1ccc(F)c(Cl)c1)NCC1CCCO1 (stereo unspecified) | inactive: -3.56%
O=C(NCc1cnn(-c2ccc(F)cc2)c1)C1CCC(=O)N(C2CC2)C1 (stereo unspecified) | inactive: 10.3%
C=CCOc1ccc(CN(C)C(=O)CN2C(=O)c3ccccc3C2=O)cc1 | inactive: 20.8%
COc1ccccc1C(CNC(=O)c1cc(C)nc2ccccc12)N(C)C (stereo unspecified) | inactive: 6.79%
CN(C(=O)C1CCN(S(=O)(=O)c2cccs2)CC1)c1ccccc1 | inactive: -3.77%
O=C(Nc1cccc(Cl)c1)C1C2C=CC3(O2)C1C(=O)N(CCCN1CCCCC1)C3C(=O)NC1CCCCC1 (stereo unspecified) | inactive: 9.39%
O=C(CCC(=O)c1cccs1)NCc1ccccc1Cl | inactive: 15.3%
Cc1ccc(NC(=O)CSc2n[nH]c(-c3ccccn3)n2)cc1 | inactive: 3.54%
Cc1ccccc1-c1nnc(SCC(=O)N(CC(C)C)c2c(N)n(CC(C)C)c(=O)[nH]c2=O)n1C | inactive: 28.9%
Nc1cccc(Oc2ccc3c(c2)C(=O)N(CCO)C3=O)c1 | inactive: -3.68%

SMILES | growth rescue (activation)
O=C(NCC(=O)N1CCOCC1)c1ccc(Cl)c(Cl)c1 | inactive: -3.26%
Cc1c(C(=O)NCc2cccc(Br)c2)oc2ccc3c(c12)C(=O)CC(C)(C)O3 | inactive: 33.2%
CCc1cccc(C)c1NC(=O)c1ccccc1 | inactive: -13.1%
COC(=O)c1ccc(CN2CCN(C3CCCCC3)C(CCO)C2)cc1 (stereo unspecified) | inactive: 14.6%
CCc1nnc(NC(=O)CSc2nc3cc(OC)c(OC)cc3cc2C)s1 | inactive: 1.85%
Cc1c(C(=O)NCc2ccco2)cccc1[N+](=O)[O-] | inactive: 8.95%
Oc1ccc(/C=N/Nc2ccnc3cc(Cl)ccc23)c(O)c1O | inactive: 13.9%
COc1ccc(OCC(=O)NC2CCCc3ccccc32)cc1 (stereo unspecified) | inactive: -8.8%
CCN1CCN(Cc2ccc(NC(=O)Nc3cccs3)cc2)CC1 | inactive: -3.27%
COc1ccc(/C=C/C(=O)NC(=S)N2CCSCC2)cc1 | inactive: 0.403%
CC1Cc2ccccc2N1C(=O)Cn1cc([N+](=O)[O-])ccc1=O (stereo unspecified) | inactive: 21.2%
O=C(COC(=O)CCc1ccc(S(=O)(=O)N2CCOCC2)cc1)NCc1ccccc1 | inactive: 16.8%
O=C(NCCc1ccccc1)C1CCCN1S(=O)(=O)c1ccccc1 (stereo unspecified) | inactive: 14.1%
CC1=NOC(=O)/C1=C\c1ccc(-c2ccc(Br)cc2C(=O)O)o1 | inactive: 16.4%
Cc1ccc(-n2cc(CNCCc3cscn3)c(-c3ccc(F)cc3)n2)cc1 | inactive: -19.6%
Cc1cc(C)c2nc(C)cc(N/N=C/c3ccc(O)cc3)c2c1 | inactive: 0.533%
O=C(c1ccc2ccccc2c1)C1CCCN(C(=O)CN2C(=O)CSC2=O)C1 (stereo unspecified) | inactive: -6.63%
NC(=O)c1nsc(C(=O)N(Cc2ccco2)C(C(=O)NCc2ccccc2)c2ccc(O)cc2)c1N (stereo unspecified) | inactive: 9.35%
COc1ccc(NC(=O)c2ccc(-c3ccc([N+](=O)[O-])cc3)o2)cc1 | inactive: 8.06%
CC(=O)c1cccc(N(C(=O)CS(=O)CC(=O)Nc2ccc(F)cc2)C(C(=O)NC2CCCCC2)c2ccc(C)o2)c1 (stereo unspecified) | inactive: -9.28%
COc1ccccc1-c1ccc(/C=C2/C=C(C)OC2=O)o1 | inactive: 11.5%
COc1cc2c(cc1OC)CN(C(=O)Nc1ccccc1)CC2 | inactive: 15.2%
Cc1ccccc1OCC(O)CNC1CCC(NCC(O)COc2ccccc2C)CC1 (stereo unspecified) | inactive: -7.34%
COc1ccccc1Nc1ncnc2c1c(C)c(C)n2CCO | inactive: -1.48%
Cc1cccc(N2CCN(S(=O)(=O)c3c(C)nc4scc(C)n4c3=O)CC2)c1C | inactive: -5.77%
